Test results: the supplement of paper PMC11417369
± gives the standard deviation of the averaged measurements. Some of the results follow.

Tested on: PfAP2-EXP AP2 domain (GST-tagged)
Assay: gcPBM binding intensity (ln(normalized median fluorescence intensity)); higher = stronger DNA binding
Summary of the method: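 Plasmodium falciparum DNA-binding domains carrying a GST tag were expressed in E. coli and applied for 1 h, at about 25 μg on average, to an Agilent 4 × 180k array. The array held primer-extended double-stranded 36-bp intergenic genomic probes together with negative controls, and binding took place in 1× PBS with 1% milk, 0.2 mg/ml BSA, 0.5% salmon testes DNA and 0.03% Triton X-100. An Alexa488 anti-GST antibody detected bound protein, and the array was scanned at 488 nm. Binding intensity is taken as the highest Masliner-normalised natural-log median intensity across replicate spots of either probe orientation.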

Sequence	gcPBM binding intensity (ln)
ATATATGGAGCTTATACACACTTTTATATTTTAACA [CACACA_site7757]	8.48 ± 0.4
TAAGTTTTGTTCTTTTGTACATATAAGTATAGATCG [XGTACX_site4735]	8.48 ± 0.33
AATGTTTTTGTGAGATGTATAAATTTTATTTTATTT [XGTACX_negctrl_site413]	8.38 ± 0.38
AAAAAAATAATGTACACACACATATAGGTTTATATA [CACACA_site192]	8.45 ± 0.38
TATAGATTTATATACACATGCATTTTGGTAAAGAAA [TGCATGCA_site953]	8.8 ± 0.36
AAATATATTTCTTTTTTTCTTATTATTAATTTGCTT [CACACA_negctrl_site1483]	8.54 ± 0.52
TTATAATAAATATTCATATGTTCAAATATATATATA [CACACA_negctrl_site624]	9.625 ± 0.021
TTTATTTATTATTATGTACACACTATATTAAAACAT [CACACA_site700]	8.73 ± 0.31
TATTTTTTTAATAACTGTACTTTTTTGTCAAATGGA [XGTACX_site4179]	8.44 ± 0.085
ATTGTAAGTAGACACACACACATATAGATGTATATA [CACACA_site6463]	8.63 ± 0.42
TTAAAATTATAATACGTACACACCTTATCTTTTTGG [CACACA_site278]	8.74 ± 0.36
ATATATAACGGGCACACACACATTTACGTATGAATA [CACACA_site1833]	8.79 ± 0.5
TGTTGTTTTATGTTGTATTGTAATATATTATATTAT [XGTACX_negctrl_site46]	8.92 ± 0.4
GGCGTATGTGTATATACACACCCACGTATATATATA [CACACA_site9046]	9.16 ± 0.16
TTAGGATTGAAGAGTTGTACATACCTCTTATTTGTT [XGTACX_site1376]	8.39 ± 0.52
ATCATATATTATTTATGTACTTATTTATAATAATAT [XGTACX_site8257]	8.45 ± 0.62
TATAAAATGTAATCTGAACACACATATTTTTTTAAT [CACACA_site8521]	8.11 ± 0.37
TATATTTGTGCGTGTACACATTTGAAAAAATATATA [CACACA_site5079]	8.84 ± 0.19
CATATAATAAATAATTGTACTTGATATAATATTATG [XGTACX_site3562]	8.27 ± 0.29
GACATATATACCAAACGTACATATGTGCAAGCATAA [XGTACX_site3089]	8.57 ± 0.28
TTGGCTATAGCCAATTGTACTTTTTCTCTTTGGCTT [XGTACX_site1119]	8.56 ± 0.39
TCTTGATTAACTTAAAAAAAAAAAAAAAAAAAAAAA [CACACA_negctrl_site458]	7.89 ± 0.35

Sequence	gcPBM binding intensity (ln)
GCTTAATACAGAATAACACACAAAATAAATAAATAA [CACACA_site4041]	8.62 ± 0.45
TTTTTTTTTTTTTTTGCACACTTAAATTTGGTGGCT [CACACA_site5319]	8.4 ± 0.48
AATAATAATAAAAAGGTGCTGAAATATTTTTATTAT [GTGCAC_site9763]	8.62 ± 0.16
TATATAATTATTTTTTGTACTCATAATAATATGAAA [XGTACX_site289]	8.64 ± 0.28
ATAAATTATAATAACTGTACAAAAATAATATATTCA [XGTACX_site1856]	8.61 ± 0.44
ATATGTACAAAATAAGCACACACAAAAAAAAAAAAA [CACACA_site8984]	8.31 ± 0.57
TTTTTTTTTTTTTTTTGTACATAAATTTTTATTAGA [XGTACX_site6409]	8.17 ± 0.35
AAAAAAAAAAAAAATATATATATATATATATATATA [CACACA_negctrl_site540]	10.2 ± 0.2
TATGAGAAAAAAAGTACATGCACAAAATGTATATGT [TGCATGCA_site789]	9.03 ± 0.25
CAACATTGTTCCTATTGTACATGAACTGTTCATACG [XGTACX_site4070]	8.81 ± 0.44
ATTATATAAACCAAATGTACAAAAAGGTCGTAGTGG [XGTACX_site1298]	9.03 ± 0.38
ATTATTAAGGTTTATTCAAAAAAGACGTTTTTAAAT [CACACA_negctrl_site1059]	8.03 ± 0.38
AGACACGTATACGATGCACACGTATGCTTTATATAT [CACACA_site9363]	9.02 ± 0.32
TATTTTTATTTTTAAACCATATATATATATATATAT [CACACA_negctrl_site1560]	10.3 ± 0.23
ATAAAAATATTTATTACACACATAAGCAAAAAAAAA [CACACA_site3484]	8.64 ± 0.44
TATAATGATGATGATAGTACGTATGAGTAAGAAAAA [XGTACX_site31]	9.01 ± 0.33
TATAGTTTCATTCTTTGTACATATATATTATTATTA [XGTACX_site8527]	8.81 ± 0.4
AATGTGCAAACAAACTGTACTTTTTTTTTTTTTTTT [XGTACX_site928]	8.61 ± 0.12
AGATTTATTCATTCATGTACTTATTTATTTTATTTT [XGTACX_site6702]	8.18 ± 0.32
AATAATAATGCTTTAACTTTGTTGTTATTTAGAATA [CACACA_negctrl_site1144]	8.16 ± 0.41
TATAAATAAAAGTGTACACACATTAAAATCAAACGT [CACACA_site5316]	8.93 ± 0.085
TTTATTTATTTATGGACACACATACAAATCTTCCAG [CACACA_site4676]	8.53 ± 0.38

Sequence	gcPBM binding intensity (ln)
TCCATGCATTGACACACACACAAAAAAAAATTCTTT [CACACA_site7847]	8.55 ± 0.23
TTTGTATTACGTTTGTGTACATATACAATGTGTTTT [XGTACX_site7708]	8.57 ± 0.31
CATACATATATACATACACACACATATAACCAATGT [CACACA_site8679]	8.68 ± 0.38
TTTTCTTAATATTTCGTTTTACATAAACCTTTTAAA [CACACA_negctrl_site660]	8.57 ± 0.46
AATATAATATTATATAGTACATATTTCTTTTATTTT [XGTACX_site22]	8.38 ± 0.36
TTTTACATCATATATAGTACATATATTATACATATA [XGTACX_site8590]	8.54 ± 0.39
TATATATATATAAGTAGTACAATAATATATTATTTT [XGTACX_site6450]	9.74 ± 0.27
ATATATTTTCATTTTACACACAAATAAAGATAATTT [CACACA_site2996]	8.41 ± 0.33
AAAATAAATAAAAAAAGTACATATATAATTTATAAA [XGTACX_site2411]	8.55 ± 0.33
TGTTGTGATATATTAAAATCGTCCCTTATAATTTTA [GTGCAC_negctrl_site595]	8.52 ± 0.52
TAATATTATATTTATAGTACATATAATATATATATA [XGTACX_site2964]	9.215 ± 0.049
AAAATACACGCATACACACACACACCGACACATATA [CACACA_site4523]	8.76 ± 0.45
TCTTGATACAAACATTTAAATAAATAAATAAAAAAA [GTGCAC_negctrl_site41]	8.35 ± 0.34
AAACACACACACAAATGTACATATATATATATATTT [XGTACX_site5090]	8.61 ± 0.41
GAACACTAATAATGTTGTACACGTAATTATATATTT [XGTACX_site777]	8.56 ± 0.38
TATAATATATGTATATGTACTTATGTTGAGAAACAT [XGTACX_site2117]	8.3 ± 0.25
GTTATATAAACATATGCATGTGAAGTGTTTATTAAT [TGCATGCA_site183]	8.87 ± 0.45
TACCTAATATGTTATACACACATTATGAGTACATAT [CACACA_site2466]	8.51 ± 0.4
GAATAATATATATGTTCACACATGGTCTTTATTATA [CACACA_site5457]	8.63 ± 0.31
AAATGTACAGGACGCACACACATATTTATATTTATA [CACACA_site7689]	8.55 ± 0.33
GTTGTATACAATAATGTGCACATATTAATTTGAACT	9.01 ± 0.2
TATATATATATAATTGCACACATCAAGTTTGATGTT [CACACA_site1288]	9.93 ± 0.28

Sequence	gcPBM binding intensity (ln)
TTTTTTTTTCCTTTTTTTTAAATATTAAAAATGGGA [TGCATGCA_negctrl_site494]	8.07 ± 0.38
TAAATATATATATATAGTACAATATAATTATGATAT [XGTACX_site258]	8.61 ± 0.38
TAAGTTTTGTTTTTTTGTACTCATTCATACTATCAT [XGTACX_site3638]	8.87 ± 0.49
CTTATTTACTATTTTTCACACATTACAGATAAACAA [CACACA_site6095]	8.65 ± 0.39
TCATTGAAAAAAATCTGTACTGACTATATAGTTGCA [XGTACX_site1566]	8.44 ± 0.33
TCAGATATATAGAATACACACATGGATATAAGAAAT [CACACA_site7831]	8.85 ± 0.49
ATATTTTGTAACTATACACACATATATATATTATAA [CACACA_site3062]	8.44 ± 0.35
TTTTTGTAATATTATGATGTCATATATATATATATA [XGTACX_negctrl_site618]	10.2 ± 0.54
AAATTGGGTACAAATACACACACATATATATATTAA [CACACA_site8745]	8.62 ± 0.48
TTTATACAATAAAATGCATGCAAGTATCTATTTTAT [TGCATGCA_site210]	9.85 ± 0.23
ATAGATCCTAATGTTGTGCACATGTAAATTAATATA	8.91 ± 0.21
GCACAACATATATTATCACACACATATATATATATA [CACACA_site8619]	10.3 ± 0.18
AAAAAACAAAAAAAAAAAAAAATAATACAATATAAT [CACACA_negctrl_site1630]	8.31 ± 0.5
ACCATATAAATAAACACACACACACCGATATATATA [CACACA_site5310]	8.8 ± 0.41
TATAATGAACATATGTGTACATATATTTTTTAAATT [XGTACX_site8736]	8.12 ± 0.27
CAAAAGAATATATGTAGTACATGTTGTAGATAATAT [XGTACX_site1044]	9.02 ± 0.38
CGCGAAGTAGCATTCACACACAGCAAAATATAAATA [CACACA_site7608]	8.71 ± 0.64
ATATATATATATAGTGCACACTTAAGAATATAAAGA [CACACA_site4771]	10.2 ± 0.13
AACTATTACTTTCTTTCACACATTTTTTTTTTTTTT [CACACA_site5355]	8.54 ± 0.32
TGTTATATAATTTAGCGTACAGGTTATAGGACGGAT [XGTACX_site8823]	9.05 ± 0.35
AACTCTTAGAATGACGGTACAGTATAATAGGTGAAC [XGTACX_site7163]	8.81 ± 0.5
ATATAATGAATTATTAGAAAATAAAATGAATAAAGT [CACACA_negctrl_site690]	8.88 ± 0.35
